Test results published in PMC6145176 (Bioorganic & medicinal chemistry, 2017).

System: A17 (K103N, Y181C) virus
Settings: A17 (K103N, Y181C) virus in MAGI-CCR5 cells

3-Methyl-4-(2-(6-methyl-4-(1-methyl-1H-indol-2-yl)-2-oxo-1,2,3,4-tetrahydropyrimidin-5-yl)thiazol-4-yl)benzonitrile [1at]
IC50, virus A17: micromolar activity
IC50 (read-out: IC50, virus A17): 6.4 ± 0.6 µM
IC90 (read-out: IC90, virus A17): > 100 µM

Cc1ccnc2c1NC(=O)c1cccnc1N2C1CC1 [NVP, nevirapine, reference compound]
IC50, virus A17: essentially inactive
